Out of some 48,000 compounds screened, about 550 (1.1%) were called active. Roughly 4% stayed inconclusive and do not appear here. Rule as the data show it: active = potency below about 15 µM; inconclusive = mostly about 16 µM to 33 µM; inactive = weaker than that. The list shows a part of the results.
target: Lysosomal acid glucosylceramidase (Homo sapiens) (UniProt P04062); experiment: Glucocerebrosidase; conditions: purified enzyme, resorufin glucoside fluorescence (screen aimed at inhibitors), 20 min;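 also: the screen sought inhibitors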
In short: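 Normal human glucocerebrosidase (0.2 nM final) was assayed with resorufin β-D-glucopyranoside (30 uM final) in 50mM citric acid/KH2PO4, 10mM sodium taurocholate, 0.01% tween-20, pH 5.9. Compounds were titrated; fluorescence (Ex 548, Em 600) read after 20 min at RT.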
Potency is read from the fitted curve at half-maximal effect.

Sequence of UniProt P04062 (P04062 whole entry, looked up): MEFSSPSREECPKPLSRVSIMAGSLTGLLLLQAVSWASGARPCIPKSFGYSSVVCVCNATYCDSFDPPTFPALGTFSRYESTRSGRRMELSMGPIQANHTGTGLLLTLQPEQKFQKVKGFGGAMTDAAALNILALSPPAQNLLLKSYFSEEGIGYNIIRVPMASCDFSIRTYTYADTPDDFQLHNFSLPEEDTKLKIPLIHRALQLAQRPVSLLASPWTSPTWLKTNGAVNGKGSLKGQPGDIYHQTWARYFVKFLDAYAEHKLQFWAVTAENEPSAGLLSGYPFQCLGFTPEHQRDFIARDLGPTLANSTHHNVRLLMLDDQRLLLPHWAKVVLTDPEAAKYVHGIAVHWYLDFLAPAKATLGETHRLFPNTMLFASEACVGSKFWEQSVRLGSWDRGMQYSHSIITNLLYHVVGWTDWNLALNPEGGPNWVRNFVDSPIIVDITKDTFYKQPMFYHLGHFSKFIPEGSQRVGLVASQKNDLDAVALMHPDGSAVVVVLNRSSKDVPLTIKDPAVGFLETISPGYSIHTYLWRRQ

Potency, inactive:
CCOC(=O)Cc1c(C)nc2cc(-c3ccc(C)cc3)[nH]n2c1=O > 76.9 µM
CCOC(=O)N1CC=C2C(C#N)=C(N)C(C#N)(C#N)[C@H](c3ccsc3)[C@H]2C1 > 76.9 µM
COCCN1C(=O)C(=O)/C(=C(/O)c2cccc(OC)c2)C1c1ccncc1 (stereo not drawn) > 76.9 µM
Brc1ccc(Oc2nsnc2N2CCOCC2)cc1 > 76.9 µM
CCn1c(NCc2ccccn2)nc2c1c(=O)n(C)c(=O)n2C > 76.9 µM
O=C(Nc1ccc2c(c1)Cc1ccccc1-2)c1ccco1 > 76.9 µM
Cc1cccc2c1nc(-c1ccccc1)n1cnnc21 > 76.9 µM
CCCOc1cccc(C(=O)O)c1 > 76.9 µM
CCn1c(SCC(=O)OCc2ccccc2)nnc1-c1ccco1 > 76.9 µM
COc1ccc(OC)c2c(N3CCN(C)CC3)cc(C(F)(F)F)nc12 > 76.9 µM
CC1(C)Cc2ccccc2C(=NCCCC(=O)O)N1 > 76.9 µM
O=C(NC1CCCC1)c1csc2c1CCCC2 > 76.9 µM
O=C(C1CC1)N1CCc2cc(S(=O)(=O)NC3CCN(Cc4ccccc4)CC3)ccc21 > 76.9 µM
COc1ccc(C(=O)CSc2nccc(=O)[nH]2)cc1 > 76.9 µM
c1ccc(Oc2cccc(OCCCn3cncn3)c2)cc1 > 76.9 µM
CCOC(=O)c1cc2sccc2n1CC(=O)Nc1ccc(OC)cc1OC > 76.9 µM
NS(=O)(=O)c1ccc(CCNc2nc(CN3CCOCC3)nc3sc4c(c23)CCC4)cc1 > 76.9 µM
Cc1occc1-c1nnc(SCC(=O)N2CCN(c3ccccc3F)CC2)n1C > 76.9 µM
CCOc1ccccc1C(=O)NCC(=O)OCC(=O)c1ccc2c(c1)OCCO2 > 76.9 µM
Cc1nc(NC(=O)CSc2nnc(C)n2CC2CCCO2)sc1C (stereo not drawn) > 76.9 µM
CCc1ccccc1N(C(=O)Cn1nnc2ccccc21)C(C(=O)NCCOC)c1ccco1 (stereo not drawn) > 76.9 µM
CCN(CC)CCCNC(CC(=O)O)C(=O)O (stereo not drawn) > 76.9 µM
Cc1cc(C)n(-c2nc3c(c(=O)[nH]c(=O)n3C)n2C(C)C)n1 > 76.9 µM
CN1CCN(CCCNC(=O)Cn2nc(-c3ccccc3)ccc2=O)CC1 > 76.9 µM
CCCCN(CCCC)CCNC(=O)Cc1nc2c(c(=O)[nH]c(=O)n2C)n1C > 76.9 µM
O=C(C1CCC1)N(CCc1ccccc1)Cc1nc2ccccc2c(=O)[nH]1 > 76.9 µM
Cc1cc2cc(CNC(=O)c3ccc4c(c3)OCO4)ccc2[nH]1 > 76.9 µM
COc1ccc(CCNS(=O)(=O)c2ccc(F)cc2)cc1OC > 76.9 µM
COc1ccc(NC(=O)CSc2nnc(COc3ccccc3)n2Cc2ccco2)cc1OC > 76.9 µM
Cc1ccc(C2CC(=O)N3CN(Cc4ccco4)CSC3=C2C#N)cc1 (stereo not drawn) > 76.9 µM
CN(CC(=O)NCc1ccc(F)cc1)S(=O)(=O)c1cccc2nsnc12 > 76.9 µM
c1csc(C2C3=C(Nc4ncnn42)c2ccccc2OC3)c1 (stereo not drawn)
O=C(CSc1nnc(CN2CCCCCC2=O)n1-c1ccccn1)NCC(F)(F)F > 76.9 µM
CCc1sc(NC(=O)COC)nc1-c1ccccc1 > 76.9 µM
CCOc1ccccc1NC(=O)N1CCC(c2nc3ccccc3[nH]2)CC1 > 76.9 µM
CNC(=O)CN1C(=O)C2C3C=CC(C3)C2C1=O (stereo not drawn) > 76.9 µM
CC(C)OC(=O)c1c(NC(=O)CCn2nnc3ccccc32)sc2c1CCCC2 > 76.9 µM
O=C(Cc1cn2ccsc2n1)Nc1ccccc1Oc1ccccc1 > 76.9 µM
COC(=O)c1ccc(C2C(C(=O)OCC(C)C)=C(C)N=C3SCCC(=O)N32)cc1 (stereo not drawn) > 76.9 µM
O/C(=C\Sc1nnc(Cc2ccccc2)o1)c1ccc(Br)cc1 > 76.9 µM
CCOC(=O)c1sc2ncn(CC(=O)NCC3CCCO3)c(=O)c2c1C (stereo not drawn) > 76.9 µM
Cc1cc(C(=O)Nc2nc3c(s2)CCCC3)no1 > 76.9 µM
O=C(NCc1cccnc1)C1CCN(S(=O)(=O)c2cccs2)CC1 > 76.9 µM
O=C(NC1CCCCC1)C(c1ccncc1)N(CC1CCCO1)C(=O)C(F)(F)F (stereo not drawn) > 76.9 µM
CCOc1nc(-c2ccccc2O)nc2ccccc12 > 76.9 µM
Cn1c(=O)c2c(nc(SCc3cccnc3)n2Cc2ccc(F)cc2)n(C)c1=O > 76.9 µM
CCOc1ccc(C(=O)C2CCN(C(=O)c3ccccc3C(=O)O)CC2)cc1 > 76.9 µM
Cc1cccc(C)c1NC(=O)N1CC=C(n2c(=O)[nH]c3ccccc32)CC1 > 76.9 µM
Cc1ccc(OCC(=O)Nc2ccc(O)c(C(=O)O)c2)cc1C > 76.9 µM
COc1ccc(C2CC(c3ccccc3)Nc3nc(NC(=O)c4ccco4)nn32)cc1 (stereo not drawn) > 76.9 µM
COC(=O)NCc1cc2cc(Cl)ccc2[nH]1 > 76.9 µM
Cc1nn(-c2ccc(F)cc2)c2sc(C(=O)OCC(=O)N3CCC(C)CC3)cc12 > 76.9 µM
COc1ccc(-c2nc(C#N)c(NCCc3ccccc3)o2)cc1OC > 76.9 µM
Cn1cccc1C(=O)OCC(=O)c1cc2ccccc2o1 > 76.9 µM
C/C=C(\C)c1nnc(NC(=O)c2ccco2)s1 > 76.9 µM
CCN(CC)S(=O)(=O)c1ccc2c(c1)nc(SCn1nnc3ccccc3c1=O)n2CC > 76.9 µM
O=C(OC(C(=O)NCC1CCCO1)c1ccccc1F)c1ccco1 (stereo not drawn) > 76.9 µM
COc1ccccc1Cc1noc(C(C)(C)NC(=O)c2ccccc2)n1 > 76.9 µM
COc1ccc(C2CC(c3cc(OC)ccc3OC)n3nnnc3N2)cc1 (stereo not drawn) > 76.9 µM
O=C(Cn1cnc2ccccc21)OCC(=O)N1CCCc2ccccc21 > 76.9 µM
Cc1noc(C)c1CSc1nnc(-c2ccccc2)n1Cc1ccco1 > 76.9 µM
O=C(Oc1cccc2cccnc12)c1ccc2c(c1)OCCO2 > 76.9 µM
CC(=O)NCCOc1cccc(OCCNC(C)=O)c1 > 76.9 µM
COCCSc1ccccc1C(=O)NCc1ccco1 > 76.9 µM
Cc1cccc(N(C(=O)Cn2nnc3ccccc32)C(C(=O)NCc2ccco2)c2ccncc2)c1C (stereo not drawn) > 76.9 µM
O=C(NCc1cccc(Cl)c1)c1ccc2c(c1)OCO2 > 76.9 µM
COCCNC(=O)C1CCN(S(=O)(=O)N2CCC3(CC2)OCCO3)CC1 > 76.9 µM
CCc1cc2c(cc3c(=O)n(CC(=O)N4CCN(c5ccccn5)CC4)nc(CC)n32)s1 > 76.9 µM
COc1ccc(NC(=O)Cn2nnc(-c3ccccc3N)n2)cc1OC > 76.9 µM
CC1CCCCN1CCNC(=O)CN1C(=O)COc2ccccc21 (stereo not drawn) > 76.9 µM
CCOc1ccccc1N1CCN(C(=O)c2ccccc2)CC1 > 76.9 µM
COc1cccc(C(=O)Nc2ncc3c(n2)CC(C)CC3=O)c1 (stereo not drawn) > 76.9 µM
CCc1cccc(NC(=O)NC2CCCCC2)c1 > 76.9 µM
Cc1cc(NC(=O)COn2nnc3ccccc32)no1 > 76.9 µM
Nc1nnc(SCC(=O)Nc2ccccc2N2CCOCC2)s1 > 76.9 µM
Cc1ccccc1NC(=O)c1c(-c2ccccc2)noc1C > 76.9 µM
O=C(Nc1ccccc1)N1CCn2c1nc1ccccc12 > 76.9 µM
Cc1cc(N/C=C2\CCCCC2=O)no1 > 76.9 µM
Cc1cc(NC(=O)COC(=O)c2n[nH]c3ccccc23)no1 > 76.9 µM
CCC(=O)N1c2ccc(S(=O)(=O)CCC(=O)N3CCN(c4ccccc4)CC3)cc2CC1C (stereo not drawn) > 76.9 µM
CN(C)CCCN1C(=O)C(=O)/C(=C(/O)c2ccncc2)C1c1cccnc1 (stereo not drawn) > 76.9 µM
COc1ccccc1NS(=O)(=O)c1ccc(O)c(C(N)=O)c1 > 76.9 µM
NC(=O)c1sc2nccc(Nc3ccccc3)c2c1N > 76.9 µM
Cc1ccc(-c2nn[nH]n2)o1 > 76.9 µM
CCOc1ccccc1NS(=O)(=O)c1ccc(OC)c(OC)c1 > 76.9 µM
CCn1nc(NC(=O)c2ccccn2)c2cc3cc(C)ccc3nc21 > 76.9 µM
O=C(OCc1nnc(-c2ccccc2)o1)C1CCN(S(=O)(=O)c2cccs2)CC1 > 76.9 µM
O=C(Nc1ccccc1)NC1(C(=O)NCc2ccco2)CCCCC1 > 76.9 µM
COc1cc(CO)cc(-c2cc(CO)cc(OC)c2OC)c1OC > 76.9 µM
CCN(C(=O)c1cccs1)c1nnc(-c2ccncc2)s1 > 76.9 µM
Cc1ccc(C(NC(=O)N2CCOCC2)=C(Cl)Cl)cc1F > 76.9 µM
COc1cc(-n2c(=O)c3ccccc3n(Cc3cccnc3)c2=O)cc(OC)c1OC > 76.9 µM
CC(=O)C1=C(O)CCC1=N > 76.9 µM
